Test results reported in PMC12136788.
Some of the results follow.

B1: 111178374_111178494_4086_3pUTR_ENSMUSG00000046785_ENSMUST00000060711|mouse|control|control (ssRNA)
RNA: GGGAGUUCUACAGUCCGACGAUCGGUCGAAUAUCAGAUAUCUAUCCUGCAUAUUGGAUAUUUACAAUUCAUAACAGUAGCAAAAUUACAGUUAUGAAAUAGCAAAGAAAUAAUUUUAUGGCUGGGGGUUACCACAACAUGAGGCAACAGAGGAUUGAGCAUCA
B2: chr16:94664741:94664742:+_ENSMUSG00000040785_ENSMUST00000117648|mus_hu|mus_mus_mus_hu_False|68_108 (ssRNA)
RNA: GGGAGUUCUACAGUCCGACGAUCUGGCAUGGAUCUUGGUAGCUGAUAUUCAGGAGAAAGGCUGGCCAAAGGUGUGUAUAUGCUGGUGUACUGGGGCAAACCUGGUAACACGUUUAUGUAUGCUGGCGGUGUCUGGGUGAUAUCCAACAGAGGAUUGAGCAUCA
B3: chrX:20248820:20248821:+_ENSMUSG00000001924_ENSMUST00000001989|mus_hu|motif|central (ssRNA)
RNA: GGGAGUUCUACAGUCCGACGAUCGGCGAAGUCCGUCACCACAAAGUCAGGUUCUGCCAGUGAGGCCACCAAGGAUUUAAAGCGGAUCUUCUUAGGUACUUUGACCUGACUGACGAUGCCUCCACGGAUGUAGUCGGAGAAGUUCAACAGAGGAUUGAGCAUCA
B4: chr17:1456404:1456405:-_ENSG00000174238_ENST00000313486|hu_mus|FALSE|FALSE (ssRNA)
RNA: GGGAGUUCUACAGUCCGACGAUCCUCGUAGGGCUCAUUCACCAGGACCUCCACACCUUCCCCACCACCAGUUUCAUUUUUACUGGCUUCAGCCACAGAAUACAGCUGCCCCACUUGAUACUCAUCUACAGACACAGGCAGGAUCAACAGAGGAUUGAGCAUCA
B5: 21313033_21314341_968_CDS_ENSG00000088930_ENST00000377191|human|control|control (ssRNA)
RNA: GGGAGUUCUACAGUCCGACGAUCCUCACGAAGAACAUUAAGCCGAAGGAAGAUAAACUCUCCUUCUGCACAAGGAAGACUAUCGGCAAGUUCAUCAUGCUUUCCCUUCUUUUCUCUUGGCAAACCUUCACAAUCUUUGACCUCCAACAGAGGAUUGAGCAUCA
B6: chr17:64801638:64801639:+_ENSG00000154229_ENST00000413366|hu_mus|hu_hu_hu_mus_False|1_1 (ssRNA)
RNA: GGGAGUUCUACAGUCCGACGAUCUAUAUAUAUAUAUACAUAUGUACACAUAUAUAGUAAAACCCUAGUUAAACGUGUAAAGUAGCCAUUCAUUUUUAAAAUUACAUCUACAUUAAAAAAUUAAUAUAUCUGAUAGAGUGCCCACAACAGAGGAUUGAGCAUCA
B7: chr10:86154994:86154995:-_ENSMUSG00000020048_ENSMUST00000020238|mus_hu|FALSE|FALSE (ssRNA)
RNA: GGGAGUUCUACAGUCCGACGAUCUGCUUUAGUGUCUGGUAAAAGAUACCCUGACCGAAGCGUUGCUGUUUCAAACAAAACCACAGCAAGAUCCAAAACUGUUUUAUCAUCUUCAUCUUCCUUAAUUCGUCGAAGCAUGUCUCUCAACAGAGGAUUGAGCAUCA
B8: chr13:31711309:31711310:-_ENSG00000120694_ENST00000320027|hu_hu|FALSE|FALSE (ssRNA)
RNA: GGGAGUUCUACAGUCCGACGAUCCAUAAAGACUACAGACUUAAGCUUUUUUUCUUUUUCCAUAUAAUACACAAAAUUUCUAAAUAUCCUUAAAAAAGAAAAUAUAAAUAGUUUCAGUAUGUUAUGUAGAGUCACAUACUAUGGCAACAGAGGAUUGAGCAUCA
B9: chr1:21069516:21069517:-_ENSG00000127483_ENST00000312239|hu_mus|FALSE|FALSE (ssRNA)
RNA: GGGAGUUCUACAGUCCGACGAUCUAAGUGCCACAAGGAAGAAUAAAUGAUAAGCAGAAACUGUAGUUCUCAAGUAAGAAGCUAGUACUAUUUUACACAACCUCACAACCCUAAACAAAUACAAACAAGAAGAGGGCUGGGUAGCAACAGAGGAUUGAGCAUCA
B10: chr5:95128998:95128999:+_ENSG00000164292_ENST00000379982|hu_hu|motif|central (ssRNA)
RNA: GGGAGUUCUACAGUCCGACGAUCCUUUUAAGACCACAGUGGUAGUUUUUUUCCAAAGAGAACUAAUAAACAUAUUAAGCGGUAUGGUAAUUUUUCUAACACCCACAUUGGUUUCGGUCAGAAGAAUUUUACUGGAACCUGGAGCAACAGAGGAUUGAGCAUCA
B11: chr6:170626544:170626545:+_ENSG00000112584_ENST00000537664|hu_mus|motif|central (ssRNA)
RNA: GGGAGUUCUACAGUCCGACGAUCUAGGCGUACAUCCAGGGUACUUGUUUCGGUGACGCUCUGCCAGCUCGUGGAUAUUGACGGUGGUACAUAUGUGUGGGCACGUACUCCCCACAAACCCCUGCAAACCUCUUACACCCAUAACAACAGAGGAUUGAGCAUCA
B12: chr10:17279496:17279497:+_ENSG00000026025_ENST00000224237|hu_hu|motif|central (ssRNA)
RNA: GGGAGUUCUACAGUCCGACGAUCUUAAUGGUAUUCAAAAUACCUUUUAAAAAGUAUUCUAGCACAAGAUUUUUCUGUAAACGGGAUUAUGUUGUAAACUUUUUUCUAAAUCUUGUAGGAGUGUCGGUUGUUAAGAACUAGAGCCAACAGAGGAUUGAGCAUCA
B13: chr3:100845581:100845582:-_ENSMUSG00000027864_ENSMUST00000102694|mus_hu|motif|central (ssRNA)
RNA: GGGAGUUCUACAGUCCGACGAUCCCUGGUGGGGUAUACUUGUUGCCCGUCUUCCCACCACAGGCCCGGGCCAAGGAAAGGCGGCUGUCAAUGCAGAAUCUAAUGUUUCUACCAUGUGCAUGGUCCCCUUGGUGGGGAAAACUCCAACAGAGGAUUGAGCAUCA
B14: chr18:43668140:43668141:-_ENSG00000152234_ENST00000398752|hu_mus|FALSE|FALSE (ssRNA)
RNA: GGGAGUUCUACAGUCCGACGAUCCAGUCUCUUCACCAGCUGAGCCACAGUGGACCGCUUCUGACCAAUCGCGACGUAGAUGCAGUACAGCUUCUUCUUCUCGUCGGUCCCAUCGUUGAAACGUUUCUGGUUGAUGAUUGUGUCCAACAGAGGAUUGAGCAUCA
B15: chr15:66793352:66793353:-_ENSG00000174444_ENST00000568588|hu_mus|FALSE|FALSE (ssRNA)
RNA: GGGAGUUCUACAGUCCGACGAUCCUUGAGGGAAGCAGCCUUCCGCCAAGUGCCAUACAGCUCAUCCAACUUCCGGAAAGCACUCUCCGUCCAGAUGCAGAAACGGCCCACAUGCCCACCAGGAGCCAGUUUCAAAAUGUUCAGCAACAGAGGAUUGAGCAUCA
B16: chr15:31385891:31385892:-_ENSMUSG00000039100_ENSMUST00000090227|mus_hu|FALSE|FALSE (ssRNA)
RNA: GGGAGUUCUACAGUCCGACGAUCUCUACAAUAGUUAUUCCUAGACCUUAGAUUAGUCAUUACAUUUUUAUUUAAGGUACUAUGUUACUUUCAUGACUACAAAAUGAGGCACUCGUACAAAACAGGAAUGAAAACAUACAUAUACAACAGAGGAUUGAGCAUCA
B17: 44626655_44626775_10377_CDS_ENSMUSG00000002028_ENSMUST00000002095|mouse|control|control (ssRNA)
RNA: GGGAGUUCUACAGUCCGACGAUCGAAGUUGGACGGCUGGGUCCCCGGAGCAGAAUCGGGAUCCCGGUCCCGCUGUGAAGUCAGGGUACCGGUUUUGCCAGCUAGGAGCUGGUUUCCUCGCUGUAGCUUAUAGUGUUCUUCGGCCAACAGAGGAUUGAGCAUCA
B18: 25565093_25565507_1963_CDS_ENSG00000170558_ENST00000399380|human|control|control (ssRNA)
RNA: GGGAGUUCUACAGUCCGACGAUCAAUAUUUGAUUUGGGAGGAUUACCCGAAUCUGUGAUUAUGAUGGGAACUUCAUAGAUACCAGCUUCAAGAAAUUUUAUCUUUAAAUUAAGCUGAGCAAAAUCACCAUUAAGCCGAGUGAUCAACAGAGGAUUGAGCAUCA
B19: chr9:14812383:14812384:-_ENSMUSG00000031934_ENSMUST00000164273|mus_mus|mus_mus_mus_hu_True|48_98 (ssRNA)
RNA: GGGAGUUCUACAGUCCGACGAUCAUAGCCCAGGUAGAUACAUGCCAACAGUAUAAUGAUGAGUGUCAGCAGGCGGCAGCUAAUGUAUUUCAUGAUUAAAUUAUUAGAAUUUUUCUUUGUCUUCAAGUACUGCUCCACAAUUGGCAACAGAGGAUUGAGCAUCA
B20: chr3:179287964:179287965:+_ENSG00000136518_ENST00000429709|hu_hu|hu_hu_hu_mus_True|1_78 (ssRNA)
RNA: GGGAGUUCUACAGUCCGACGAUCCUUGAGUGGUGAGAUGGCCUCCAUGUUCUCCCUCGGAACACGCAGGGCAUUGGUGUCUAUGUAGUAGGUGGGCCCGCCCUGCUUGCCUUUGUCACCAUCAAUCUCCAUCAUUGUGCUUCCCAACAGAGGAUUGAGCAUCA
B21: chr2:48026839:48026840:+_ENSG00000116062_ENST00000540021|hu_hu|hu_hu_hu_mus_False|8_48 (ssRNA)
RNA: GGGAGUUCUACAGUCCGACGAUCAUAGUGAGCCACUAGCGUCCUAAAUCUGGAACAGUGGCGGUCAUCCGAAAACUGGCCGAUGAAAAACUUUCCCAGUGAAGUGUCCACAAAGCAAACACCAUACGCACGAGUAUGACCAGACAACAGAGGAUUGAGCAUCA
B22: chrX:76939635:76939636:-_ENSG00000085224_ENST00000373344|hu_hu|FALSE|FALSE (ssRNA)
RNA: GGGAGUUCUACAGUCCGACGAUCUAAUUUUGUAGCAGAACUGAUUUCUGAAUUAUCUGUUGCCUGCUUUAAAAAUUUAACAUAACUGGAGUUCAUGUUGGCUGUGGUCUCAAUCAGUUUUUUUGCCUUCUUAAUCAUCUCUUUCAACAGAGGAUUGAGCAUCA

biological target: T1, UNK ZnF1-3 (human, UniProt Q9C0B0 31-174); assay: nsRBNS (natural sequence RNA bind-n-seq); RBNS binding buffer (assumed for nsRBNS): 25 mM Tris pH 7.5, 150 mM KCl, 3 mM MgCl2, 0.01% Triton X-100, 500 ug/ml BSA, 20 U/ml SUPERase-In, 4 C; UNK is unkempt and MSI1 is Musashi-1; names of the RNAs are library labels; protein concentration not given here; high values mean tight binding
T1 sequence: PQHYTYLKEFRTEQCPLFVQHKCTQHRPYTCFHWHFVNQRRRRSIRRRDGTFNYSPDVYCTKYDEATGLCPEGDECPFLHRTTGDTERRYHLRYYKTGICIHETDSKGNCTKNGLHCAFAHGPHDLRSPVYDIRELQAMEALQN

Binder | binding signal [enrichment R]
B1 | 0.728
B2 | 1.09
B3 | 0.984
B4 | 1.24
B5 | 0.706
B6 | 1.92
B7 | 0.908
B8 | 0.693
B9 | 1.34
B10 | 0.821
B11 | 0.851
B12 | 0.656
B13 | 0.908
B14 | 0.689
B15 | 1.41
B16 | 0.911
B17 | 0.836
B18 | 1.34
B19 | 3.18
B20 | 0.432
B21 | 1.16
B22 | 0.662
